The values below come from the supplement of paper PMC11417369.

± gives the standard deviation of the averaged measurements. The list shows a part of the results.

This assay concerns PfAP2-EXP AP2 domain (GST-tagged). As to the kind of experiment: gcPBM binding intensity (ln(normalized median fluorescence intensity)); higher = stronger DNA binding. The essentials: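 Plasmodium falciparum DNA-binding domains carrying a GST tag were expressed in E. coli and applied for 1 h, at about 25 μg on average, to an Agilent 4 × 180k array. The array held primer-extended double-stranded 36-bp intergenic genomic probes together with negative controls, and binding took place in 1× PBS with 1% milk, 0.2 mg/ml BSA, 0.5% salmon testes DNA and 0.03% Triton X-100. An Alexa488 anti-GST antibody detected bound protein, and the array was scanned at 488 nm. Binding intensity is taken as the highest Masliner-normalised natural-log median intensity across replicate spots of either probe orientation.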
Turning to “AAATTTTTATAATTATCACACATTGAATTGTGGTCT [CACACA_site4343]”, the “gcPBM binding intensity (ln)” value was found to be 8.56 ± 0.39.
The result for “AACAATTATTGTAATGCATGCACTGAATATAGAAAG [TGCATGCA_site889]” reads 10.3 ± 0.24.
The result for “ATTCACAAATATATGGTGCATAATATATATATATAT [GTGCAC_site9674]” reads 9.99 ± 0.3; that for “AATATGTAAATATGGGTGCTTTAAAATATATTCATT [GTGCAC_site9583]”, 8.56 ± 0.11; that for “TTCCAATGATAAAATTGTACTTGAAGAAAATTTTTT [XGTACX_site4607]”, 8.08 ± 0.38.
Consider “TTATATAACACGGGGAGGACACAAGAAATAAAGAGC [XGTACX_site2148]”, for which the “gcPBM binding intensity (ln)” value was 9.13 ± 0.29.
Regarding “GCTAATAATAAAAGCATAATGAACAAACACCCAGTA [CACACA_negctrl_site806]”, the “gcPBM binding intensity (ln)” value is 9.03 ± 0.34.
On to “TTTTTCTGTTTTTATAGCCTTCTCATAATACATAAA [TGCATGCA_negctrl_site355]”, for which the “gcPBM binding intensity (ln)” value turned out to be 8.71 ± 0.26.
As for “ATTCGGATCTATAAGTGTACACAATCTAGCGAAAAG [XGTACX_site3088]”, the “gcPBM binding intensity (ln)” value came to 8.77 ± 0.4.
“TATAATAAATCGAACTGTACATATATATATATATAT [XGTACX_site7097]”: the “gcPBM binding intensity (ln)” value came out at 10.2 ± 0.33.
The result for “TATACGCAGAAACACACACACAAAAAAAAAAAAAAA [CACACA_site427]” reads 8.08 ± 0.49.
“ATTTTTTTTGCTAAGTGTACACAAATGTTTATTAAT [XGTACX_site7440]”: the “gcPBM binding intensity (ln)” value was found to be 9.04 ± 0.27.
For the sequence “TTTATTCAAATATAATGTACTTTCTACAAATTCAAT [XGTACX_site8119]”, the “gcPBM binding intensity (ln)” value stood at 8.23 ± 0.34.
For “CATATATAAATATATACACACATATATATATATATA [CACACA_site1365]”, the “gcPBM binding intensity (ln)” value was determined as 10 ± 0.35.
Turning to “CAGATAAGATTTTGTGGTACTATTTATTAAATTAGA [XGTACX_site2644]”, the “gcPBM binding intensity (ln)” value was determined as 8.2 ± 0.38.
As for “ATATTTTCCCTTTATAGGAGCACAAAAATTAAATGT [CACACA_negctrl_site1114]”, the “gcPBM binding intensity (ln)” value worked out at 8.51 ± 0.35.
Take “AAATATTACTCCTCAAGTACACATAAAAAAAAAATA [XGTACX_site2085]”: the “gcPBM binding intensity (ln)” value was found to be 8.55 ± 0.52.
Take “TTTTATTTTCGATGATGTACATTAAATTATACAGTA [XGTACX_site6053]”: the “gcPBM binding intensity (ln)” value stood at 8.47 ± 0.32.
Consider “AATATACAAAATAAATAAAATATATATATATATATA [CACACA_negctrl_site216]”, for which the “gcPBM binding intensity (ln)” value worked out at 10.2 ± 0.28.
As for “TATTTTTTTTGATATTGTACTTTTTTATTATTTTTT [XGTACX_site566]”, the “gcPBM binding intensity (ln)” value turned out to be 8.6 ± 0.41.
The result for “TAAAAATTTAAGAAAACATGCATCTAACATATATAT [TGCATGCA_site342]” reads 8.77 ± 0.54; that for “AAGTAAAATAAGTATACACACATAAATATGTAAATA [CACACA_site6467]”, 8.6 ± 0.33.
Regarding “TTACATGCTAAAATTTGTACATATATGATAAATATT [XGTACX_site2648]”, the “gcPBM binding intensity (ln)” value was 8.44 ± 0.38.
With “ATACATAAATTTATACGTACATATATAGATACATAA [XGTACX_site675]”, the “gcPBM binding intensity (ln)” value came to 8.64 ± 0.35.
The value for “TTGTTTTCACCAAATACACACAAGCATACACCCCAT [CACACA_site2717]” was 9.27 ± 0.57.
As to “TATTTATTGTGATACTTATATTATTTCATGATTAAT [CACACA_negctrl_site738]”, the “gcPBM binding intensity (ln)” value was 8.38 ± 0.33.
The result for “ACTTTATTATATATTTGTACATATATTTTTAATTTC [XGTACX_site4144]” reads 8.88 ± 0.32; that for “TCTACATCTGTATATAAACACACAACAAAAATGCTT [CACACA_site9271]”, 8.4 ± 0.47.
Take “GTATATATGTATGTATGTACTTATAAAGTTGCATAT [XGTACX_site5616]”: the “gcPBM binding intensity (ln)” value was 8.49 ± 0.27.
For the sequence “AATGTGTAGACACGCACACACAAAAAAATATTTATA [CACACA_site7384]”, the “gcPBM binding intensity (ln)” value stood at 8.46 ± 0.6.
Take “TATATATTTCAATAATGTACATATAATATATATATT [XGTACX_site4124]”: the “gcPBM binding intensity (ln)” value was determined as 8.51 ± 0.31.
“TTCTTACACAAAAAAATGAAATCAATCAAAAAAAAA [CACACA_negctrl_site869]”: the “gcPBM binding intensity (ln)” value is 8.26 ± 0.55.
As for “AAATTATATATAAAATGTACATATGTAGGTAATTTT [XGTACX_site5047]”, the “gcPBM binding intensity (ln)” value came out at 9.02 ± 0.51.
On to “AAGTAATCATCATAAAGTACTAAATTATATTGTCAA [XGTACX_site5841]”, for which the “gcPBM binding intensity (ln)” value is 8.31 ± 0.43.
The result for GAAAATATATTTAAGATGCACTTTAAAAATGTACTT reads 8.52 ± 0.24; that for “ACATTCTGATGGTGATTATTAATTATTACAAAAATT [CACACA_negctrl_site283]”, 8.16 ± 0.47.
On to CAATTTATTATATATGTGCACATATAATTTTACAAA, for which the “gcPBM binding intensity (ln)” value stood at 8.76 ± 0.18.
With “TAATTATTTTTATTGTTGCACTAGTAAAATTTTAAG [GTGCAC_site9946]”, the “gcPBM binding intensity (ln)” value amounted to 8.62 ± 0.28.
Consider “AATACAAATATATATGCACACACATATACATACATA [CACACA_site8677]”, for which the “gcPBM binding intensity (ln)” value was 8.54 ± 0.17.
For “TACATTTTAATATAAGCATGCCTTTAGTTTTTTTCT [TGCATGCA_site829]”, the “gcPBM binding intensity (ln)” value was 9.04 ± 0.35.
Consider “TTTTTTTTTTCTTTTTTTTATTATATTAACGGAATT [GTGCAC_negctrl_site104]”, for which the “gcPBM binding intensity (ln)” value was 8.21 ± 0.42.
The value for “AATAAACAAATAAATAAACACACAATATATGTATAT [CACACA_site9268]” was 8.44 ± 0.42; that for “AAAAAGAAATACAAATAATATATATATATATATATT [TGCATGCA_negctrl_site458]” was 8.45 ± 0.26.
With “CATAAAAATTGAAGCACACACACAAAAGAAATACAA [CACACA_site1112]”, the “gcPBM binding intensity (ln)” value is 8.87 ± 0.38.
